Assay results as given in PMC12820563.
The other results are listed elsewhere or left out. The list includes weakly bound sequences.

Each sequence was assayed against T1, MBP-FoxP3dN (UniProt Q99JB6) (assay: PD-seq (MBP pull-down with sequencing)). Details: 20 mM Tris-HCl pH 7.5, 100 mM NaCl, 1.5 mM MgCl2, 0.4 uM protein, 0.1 uM dsDNA library, 30 min, room temperature, amylose pull-down; high values mean tight binding; double strand, one strand shown.
T1 sequence: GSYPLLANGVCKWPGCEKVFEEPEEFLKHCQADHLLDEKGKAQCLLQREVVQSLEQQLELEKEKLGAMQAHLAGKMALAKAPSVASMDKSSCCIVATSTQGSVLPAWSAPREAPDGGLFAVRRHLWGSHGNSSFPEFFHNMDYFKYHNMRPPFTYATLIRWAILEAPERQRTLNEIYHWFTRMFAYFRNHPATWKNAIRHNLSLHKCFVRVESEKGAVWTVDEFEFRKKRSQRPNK

| Sequence | binding signal (RPM ratio (pull-down/input)) |
| --- | --- |
| GATGATTGTTCTCCCAGCTGATGAATTCTAACTATCGAGTAAACAAATTTTCCTAATCTTTCTGTTCAAGCGCCATCTAC | 0.447 |
| GATGATTGTTCTCCCAGCTGATGAATTCCGTTGCTCGAGTAAACAAATTTTCCTAATCTTTCTGTTCAAGCGCCATCTAC | 1.05 |
| GATGATTGTTCTCCCAGCTGATGAATTAAATCTTTCGAGTAAACAAATTTTCCTAATCTTTCTGTTCAAGCGCCATCTAC | 0.279 |
| GATGATTGTTCTCCCAGCTGATGAATTACGTTGCTCGAGTAAACAAATTTTCCTAATCTTTCTGTTCAAGCGCCATCTAC | 1.14 |
| GATGATTGTTCTCCCAGCTGATGAATTACAGGTGTCGAGTAAACAAATTTTCCTAATCTTTCTGTTCAAGCGCCATCTAC | 0.684 |
| GATGATTGTTCTCCCAGCTGATGAATTCGCAGATTCGAGTAAACAAATTTTCCTAATCTTTCTGTTCAAGCGCCATCTAC | 0.316 |
| GATGATTGTTCTCCCAGCTGATGAATTTAGTGATTCGAGTAAACAAATTTTCCTAATCTTTCTGTTCAAGCGCCATCTAC | 1.91 |
| GATGATTGTTCTCCCAGCTGATGAATTGGGCGCATCGAGTAAACAAATTTTCCTAATCTTTCTGTTCAAGCGCCATCTAC | 1.39 |
| GATGATTGTTCTCCCAGCTGATGAATTCATCCAGTCGAGTAAACAAATTTTCCTAATCTTTCTGTTCAAGCGCCATCTAC | 0.248 |
| GATGATTGTTCTCCCAGCTGATGAATTGTGCTTGTCGAGTAAACAAATTTTCCTAATCTTTCTGTTCAAGCGCCATCTAC | 5.16 |
| GATGATTGTTCTCCCAGCTGATGAATTGAAACCCTCGAGTAAACAAATTTTCCTAATCTTTCTGTTCAAGCGCCATCTAC | 0.235 |
| GATGATTGTTCTCCCAGCTGATGAATTGAGAGTGTCGAGTAAACAAATTTTCCTAATCTTTCTGTTCAAGCGCCATCTAC | 0.963 |
| GATGATTGTTCTCCCAGCTGATGAATTTAGTGACTCGAGTAAACAAATTTTCCTAATCTTTCTGTTCAAGCGCCATCTAC | 1.59 |
| GATGATTGTTCTCCCAGCTGATGAATTTGCGTACTCGAGTAAACAAATTTTCCTAATCTTTCTGTTCAAGCGCCATCTAC | 4.57 |
| GATGATTGTTCTCCCAGCTGATGAATTCGGCCCATCGAGTAAACAAATTTTCCTAATCTTTCTGTTCAAGCGCCATCTAC | 0.889 |
| GATGATTGTTCTCCCAGCTGATGAATTCGATAGGTCGAGTAAACAAATTTTCCTAATCTTTCTGTTCAAGCGCCATCTAC | 0.624 |
| GATGATTGTTCTCCCAGCTGATGAATTGTGCCTGTCGAGTAAACAAATTTTCCTAATCTTTCTGTTCAAGCGCCATCTAC | 6.42 |
| GATGATTGTTCTCCCAGCTGATGAATTCTTCTTTTCGAGTAAACAAATTTTCCTAATCTTTCTGTTCAAGCGCCATCTAC | 0.26 |
| GATGATTGTTCTCCCAGCTGATGAATTGTAAGACTCGAGTAAACAAATTTTCCTAATCTTTCTGTTCAAGCGCCATCTAC | 0.374 |
| GATGATTGTTCTCCCAGCTGATGAATTGGTGTACTCGAGTAAACAAATTTTCCTAATCTTTCTGTTCAAGCGCCATCTAC | 3.3 |
| GATGATTGTTCTCCCAGCTGATGAATTTTGAACATCGAGTAAACAAATTTTCCTAATCTTTCTGTTCAAGCGCCATCTAC | 0.498 |

| Sequence | binding signal (RPM ratio (pull-down/input)) |
| --- | --- |
| GATGATTGTTCTCCCAGCTGATGAATTAGCTGTCTCGAGTAAACAAATTTTCCTAATCTTTCTGTTCAAGCGCCATCTAC | 2.44 |
| GATGATTGTTCTCCCAGCTGATGAATTCGTGAGCTCGAGTAAACAAATTTTCCTAATCTTTCTGTTCAAGCGCCATCTAC | 0.432 |
| GATGATTGTTCTCCCAGCTGATGAATTACAGTCATCGAGTAAACAAATTTTCCTAATCTTTCTGTTCAAGCGCCATCTAC | 0.774 |
| GATGATTGTTCTCCCAGCTGATGAATTTTTGCCATCGAGTAAACAAATTTTCCTAATCTTTCTGTTCAAGCGCCATCTAC | 3.09 |
| GATGATTGTTCTCCCAGCTGATGAATTTCGGGTGTCGAGTAAACAAATTTTCCTAATCTTTCTGTTCAAGCGCCATCTAC | 0.707 |
| GATGATTGTTCTCCCAGCTGATGAATTTGCCCCTTCGAGTAAACAAATTTTCCTAATCTTTCTGTTCAAGCGCCATCTAC | 0.503 |
| GATGATTGTTCTCCCAGCTGATGAATTGTTAGAGTCGAGTAAACAAATTTTCCTAATCTTTCTGTTCAAGCGCCATCTAC | 0.504 |
| GATGATTGTTCTCCCAGCTGATGAATTATTCGGCTCGAGTAAACAAATTTTCCTAATCTTTCTGTTCAAGCGCCATCTAC | 0.27 |
| GATGATTGTTCTCCCAGCTGATGAATTACAATAATCGAGTAAACAAATTTTCCTAATCTTTCTGTTCAAGCGCCATCTAC | 0.672 |
| GATGATTGTTCTCCCAGCTGATGAATTGCAAGGGTCGAGTAAACAAATTTTCCTAATCTTTCTGTTCAAGCGCCATCTAC | 0.919 |
| GATGATTGTTCTCCCAGCTGATGAATTATTCCTATCGAGTAAACAAATTTTCCTAATCTTTCTGTTCAAGCGCCATCTAC | 0.365 |
| GATGATTGTTCTCCCAGCTGATGAATTACATCCATCGAGTAAACAAATTTTCCTAATCTTTCTGTTCAAGCGCCATCTAC | 0.517 |
| GATGATTGTTCTCCCAGCTGATGAATTTCGGCCGTCGAGTAAACAAATTTTCCTAATCTTTCTGTTCAAGCGCCATCTAC | 0.39 |
| GATGATTGTTCTCCCAGCTGATGAATTCTGAGGATCGAGTAAACAAATTTTCCTAATCTTTCTGTTCAAGCGCCATCTAC | 0.283 |
| GATGATTGTTCTCCCAGCTGATGAATTACCGGCCTCGAGTAAACAAATTTTCCTAATCTTTCTGTTCAAGCGCCATCTAC | 0.378 |
| GATGATTGTTCTCCCAGCTGATGAATTAAATCCATCGAGTAAACAAATTTTCCTAATCTTTCTGTTCAAGCGCCATCTAC | 0.257 |
| GATGATTGTTCTCCCAGCTGATGAATTCTACCTTTCGAGTAAACAAATTTTCCTAATCTTTCTGTTCAAGCGCCATCTAC | 0.358 |
| GATGATTGTTCTCCCAGCTGATGAATTTATATCGTCGAGTAAACAAATTTTCCTAATCTTTCTGTTCAAGCGCCATCTAC | 1.4 |
| GATGATTGTTCTCCCAGCTGATGAATTCGCCCCATCGAGTAAACAAATTTTCCTAATCTTTCTGTTCAAGCGCCATCTAC | 0.38 |
| GATGATTGTTCTCCCAGCTGATGAATTCCAAGCTTCGAGTAAACAAATTTTCCTAATCTTTCTGTTCAAGCGCCATCTAC | 0.312 |
| GATGATTGTTCTCCCAGCTGATGAATTTTGCCTCTCGAGTAAACAAATTTTCCTAATCTTTCTGTTCAAGCGCCATCTAC | 5.78 |

| Sequence | binding signal (RPM ratio (pull-down/input)) |
| --- | --- |
| GATGATTGTTCTCCCAGCTGATGAATTCCGCGTCTCGAGTAAACAAATTTTCCTAATCTTTCTGTTCAAGCGCCATCTAC | 4.65 |
| GATGATTGTTCTCCCAGCTGATGAATTGTTTAAGTCGAGTAAACAAATTTTCCTAATCTTTCTGTTCAAGCGCCATCTAC | 0.721 |
| GATGATTGTTCTCCCAGCTGATGAATTGTCGACATCGAGTAAACAAATTTTCCTAATCTTTCTGTTCAAGCGCCATCTAC | 0.63 |
| GATGATTGTTCTCCCAGCTGATGAATTCCAGTTTTCGAGTAAACAAATTTTCCTAATCTTTCTGTTCAAGCGCCATCTAC | 0.472 |
| GATGATTGTTCTCCCAGCTGATGAATTAGGTCGGTCGAGTAAACAAATTTTCCTAATCTTTCTGTTCAAGCGCCATCTAC | 0.28 |
| GATGATTGTTCTCCCAGCTGATGAATTATGTCCGTCGAGTAAACAAATTTTCCTAATCTTTCTGTTCAAGCGCCATCTAC | 0.701 |
| GATGATTGTTCTCCCAGCTGATGAATTCCTGGCATCGAGTAAACAAATTTTCCTAATCTTTCTGTTCAAGCGCCATCTAC | 0.591 |
| GATGATTGTTCTCCCAGCTGATGAATTGCTCCTTTCGAGTAAACAAATTTTCCTAATCTTTCTGTTCAAGCGCCATCTAC | 0.512 |
| GATGATTGTTCTCCCAGCTGATGAATTAGGGACGTCGAGTAAACAAATTTTCCTAATCTTTCTGTTCAAGCGCCATCTAC | 0.349 |
| GATGATTGTTCTCCCAGCTGATGAATTTTTGAATTCGAGTAAACAAATTTTCCTAATCTTTCTGTTCAAGCGCCATCTAC | 0.72 |
| GATGATTGTTCTCCCAGCTGATGAATTCCTCCACTCGAGTAAACAAATTTTCCTAATCTTTCTGTTCAAGCGCCATCTAC | 0.236 |
| GATGATTGTTCTCCCAGCTGATGAATTGTTCCGATCGAGTAAACAAATTTTCCTAATCTTTCTGTTCAAGCGCCATCTAC | 0.273 |
| GATGATTGTTCTCCCAGCTGATGAATTGCGCGTTTCGAGTAAACAAATTTTCCTAATCTTTCTGTTCAAGCGCCATCTAC | 4.39 |
| GATGATTGTTCTCCCAGCTGATGAATTAACAAACTCGAGTAAACAAATTTTCCTAATCTTTCTGTTCAAGCGCCATCTAC | 0.55 |
| GATGATTGTTCTCCCAGCTGATGAATTCGTAGTATCGAGTAAACAAATTTTCCTAATCTTTCTGTTCAAGCGCCATCTAC | 1.47 |
| GATGATTGTTCTCCCAGCTGATGAATTAAGTTTATCGAGTAAACAAATTTTCCTAATCTTTCTGTTCAAGCGCCATCTAC | 4.24 |
| GATGATTGTTCTCCCAGCTGATGAATTCCATCCGTCGAGTAAACAAATTTTCCTAATCTTTCTGTTCAAGCGCCATCTAC | 0.314 |
| GATGATTGTTCTCCCAGCTGATGAATTGACCTGATCGAGTAAACAAATTTTCCTAATCTTTCTGTTCAAGCGCCATCTAC | 0.249 |
| GATGATTGTTCTCCCAGCTGATGAATTCAGACCATCGAGTAAACAAATTTTCCTAATCTTTCTGTTCAAGCGCCATCTAC | 0.403 |
| GATGATTGTTCTCCCAGCTGATGAATTGGAGGCTTCGAGTAAACAAATTTTCCTAATCTTTCTGTTCAAGCGCCATCTAC | 0.596 |
| GATGATTGTTCTCCCAGCTGATGAATTGGGCAGGTCGAGTAAACAAATTTTCCTAATCTTTCTGTTCAAGCGCCATCTAC | 0.479 |
